Source: US20240270866A1 (Alector, published 2024)

What was measured:
Human SIRPb D1 Fc = Human SIRPb D1 Fc (human, UniProt O00241 30-148, limits assumed); assay: ForteBio IgG avid;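 note: antibody IgG captured on AHQ biosensors, then 100 nM Fc-fused SIRP antigen applied for 3 min, followed by 3 min buffer dissociation, kinetics fitted to a 1:1 model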
Human SIRPA D1 Fc = target: T1, Human SIRPA D1 Fc (human, UniProt P78324 32-137); assay: ForteBio IgG avid;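 note: antibody IgG captured on AHQ biosensors, then 100 nM Fc-fused SIRP antigen applied for 3 min, followed by 3 min buffer dissociation, kinetics fitted to a 1:1 model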
T1 construct: not shown: human IgG1 Fc

Mouse SIRPA D1 Fc = target: T2, Mouse SIRPA D1 Fc (mouse, UniProt P97797 32-150, limits assumed); assay: ForteBio IgG avid;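 note: antibody IgG captured on AHQ biosensors, then 100 nM Fc-fused SIRP antigen applied for 3 min, followed by 3 min buffer dissociation, kinetics fitted to a 1:1 model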
T2 sequence: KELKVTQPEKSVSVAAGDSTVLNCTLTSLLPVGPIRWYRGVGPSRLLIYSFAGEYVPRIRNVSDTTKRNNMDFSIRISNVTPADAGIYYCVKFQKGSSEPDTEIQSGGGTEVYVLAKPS

[1] = target: T3, mouse SIRPA overexpressed on CHO cells (mouse, UniProt P97797 32-513); assay: flow, CHO-muSIRPA;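 note: antibody binding measured by flow cytometry: cells stained with 1 ug/ml test antibody for 1 h on ice, detected with PE-labelled secondary antibody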
T3 construct: also called CHO-muSIRPA
T3 sequence: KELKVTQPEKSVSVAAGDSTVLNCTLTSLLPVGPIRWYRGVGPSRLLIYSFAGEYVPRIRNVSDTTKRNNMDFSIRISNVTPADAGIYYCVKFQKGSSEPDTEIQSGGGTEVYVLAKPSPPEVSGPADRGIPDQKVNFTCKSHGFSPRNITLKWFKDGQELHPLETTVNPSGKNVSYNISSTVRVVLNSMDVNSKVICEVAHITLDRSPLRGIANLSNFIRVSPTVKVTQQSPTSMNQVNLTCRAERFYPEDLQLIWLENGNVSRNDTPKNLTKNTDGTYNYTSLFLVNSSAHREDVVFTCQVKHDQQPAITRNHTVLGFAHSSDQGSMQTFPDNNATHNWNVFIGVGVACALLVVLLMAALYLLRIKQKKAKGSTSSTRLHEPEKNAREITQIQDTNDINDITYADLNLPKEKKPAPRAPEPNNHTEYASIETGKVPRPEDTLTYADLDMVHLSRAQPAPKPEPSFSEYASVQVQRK

[2] = target: T4, human SIRPA overexpressed on CHO cells (human, UniProt P78324 31-504); assay: flow, CHO-huSIRPA;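 note: Anti-SIRPA antibodies applied at 1 µg/mL for 1 h on ice, binding read by flow cytometry using a PE-labelled secondary antibody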
T4 construct: also called CHO-huSIRPA

[3] = target: T5, human SIRPA Fc fusion antigen (human, UniProt P78324 31-373); assay: ForteBio Fab monovalent
T5 construct: heterologous signal peptide; not shown: human IgG1 Fc

Sequence of Human SIRPb D1 Fc (O00241 30-148 limits assumed): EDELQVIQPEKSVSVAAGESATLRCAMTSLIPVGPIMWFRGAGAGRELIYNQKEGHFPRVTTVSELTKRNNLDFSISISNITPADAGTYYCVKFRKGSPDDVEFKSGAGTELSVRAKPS

B1: SA-21 (antibody, V domains shown)
VH: [about 100 residues not written out]DPLHYYDSSGDVGIYWGQGTLVTVSS
VL: DIVMTQSPDSLAVSLGERATINCKSSQSVLFSSNNKNYLAWYQQKPGQPPKLLIYWASTRESGVPDRFSGSGSGTDFTLTISSLQAEDVAVYYCQQDYATPFTFGGGTKVEIK
notes: IgG
Human SIRPb D1 Fc
  binding result: no binding (tested: 100 nM)
Human SIRPA D1 Fc
  Kd: 0.00689 µM
Mouse SIRPA D1 Fc
  binding result: no binding (tested: 100 nM)
[1]
  relative MFI: 0.542 fold over background
[2]
  relative MFI: 49.2 fold over background

B2: SA-21 Fab (Fab, V domains shown)
VH: [about 100 residues not written out]DPLHYYDSSGDVGIYWGQGTLVTVSS
VL: B1 VL
notes: papain Fab
[3]
  Kd: 0.359 µM
